# Data: ChEMBL document CHEMBL4888484, “Replenishing the malaria drug discovery pipeline: Screening and hit evaluation of the MMV Hit Generation Library 1 (HGL1) against asexual blood stage Plasmodium falciparum ,using a nano luciferase reporter read-out” (2022)
# Among all 150,000 compounds or so, about 540 (0.36%) showed an effect of 50% or more. The list shows a part of the results.
# System: Plasmodium falciparum
# Assay: Primary screen in NF54 nanoGlo assay, in single point, at 2uM, 72h; a lower Z score goes with more inhibition
# Type: functional, Erythrocyte
# Conditions: timepoint 72 hour
SMILES,% Inhibition,Z score
O[C@H]1COC[C@@H]1Nc1ncc(Cl)cc1F,-4%,0.4
CC(C)c1nnc(Cn2ncc3c2C[C@@H](O)CC3)s1,4%,-0.6
Cc1nn(C)c2nc(N[C@H](c3nccn3C)C(C)C)sc12,-6%,1.06
Cc1csc([C@@H](C)C(=O)N2CCN(c3cnccc3C)CC2)n1,2%,-0.46
Cc1cc(CN(C)C(=O)c2c(C)n[nH]c2C2CC2)no1,-7%,0.89
O=C1CCCC[C@@](Cc2ccccc2)(C(=O)NCCCN2CCOCC2)N1,6%,-0.69
CCCc1cc(C(=O)N2C[C@H](CCC)[C@@H](N)C2)no1,-14%,1.31
COc1ccccc1-c1nc2ccc(C)cn2c1NS(=O)(=O)c1ccccc1,-12%,1.19
CCn1cnnc1NCc1csc(C)n1,5%,-0.65
Clc1ccc(-n2nnnc2C2(N3CCOCC3)CCCC2)cc1,-7%,1.29
Cn1c(CCNc2ccc3nnnn3n2)nc2ccc(F)cc21,-26%,4.89
O=C(Nc1cc(-c2ccc(OC(F)F)cc2)no1)c1nccn2ccnc12,-19%,3
CC(C)(C)NC(=O)CNc1nnc(Cc2ccc(F)cc2)s1,-1%,0.16
CC(C)CCNC(=O)c1[nH]cnc1C(=O)N1CCN(Cc2ccccc2)CC1,32%,-3.75
CCOC(=O)C1CCN(c2ncnc3c2c(C)c(C)n3-c2cc(Cl)ccc2C)CC1,13%,-2.04
COc1ccc(-c2nccn2[C@H](c2ncnn2C)C(C)C)c(F)c1,-5%,0.96
CCO[C@@H](C)CN(C)Cc1nc(C(=O)NC)no1,-11%,2.02
CC(C)N1C[C@@H](NC(=O)N(C)Cc2noc(C3CCC3)n2)CC1=O,1%,-0.22
CCc1ccc(NC(=O)c2nn3c(C)cc(C)nc3c2-c2ccc(OC)c(S(=O)(=O)N(CC)CC)c2)cc1,-8%,0.79
O=C(CC1CCCCC1)N1CCC2(CC1)C[C@@H](Cc1nc(-c3cccnc3)no1)CCO2,-20%,2.74
Cc1cc(C)n(Cc2nnc(N3CCN(Cc4ccccc4)CC3)n2Cc2ccccc2C)n1,-4%,0.53
COCCn1cnnc1CNc1cc(-c2ccncc2)nc2ccnn12,-1%,0.18
COc1ncccc1CNC(=O)CN1CCN(Cc2ccccc2)CC1,-11%,1.57
CC1CCCCC1NC(=O)C1CCCO1 (stereo not drawn),5%,-0.54
